From PubChem BioAssay AID2675 (National Center for Advancing Translational Sciences (NCATS), 2010)
In all, about 280,000 compounds went through this assay and about 100 (0.036%) were called active. Inconclusive means that the source gave no clear call. Such entries were picked first, then a sample of the others. Calls come from the whole dose curve; as a rule, active = well fitted inhibition curve with a large enough effect in the signal ratio, with a control signal flat (not every such curve was filed as active); inconclusive = small, poorly fitted or top-dose-only effect, or effect the other way, or a change in a side signal; inactive = no such curve, though single readings can be large or run the other way; the % refers to the signal ratio. Potencies of inconclusive entries are doubtful fits and often do not repeat. “Side channel” marks fits to a control or component signal instead of the main read-out.

What follows are molecules tested against Muscleblind-like protein 1 (Homo sapiens) (UniProt Q9NR56) (assay: qHTS Assay for Inhibitors of MBNL1-poly(CUG) RNA binding). Settings: TR-FRET MBNL1-His/biotin-(CUG)12 binding, 665/545 ratio; activity change, negative = inhibition: at 57.5 µM (top of the series).
Sequence of UniProt Q9NR56 (Q9NR56 whole entry, looked up): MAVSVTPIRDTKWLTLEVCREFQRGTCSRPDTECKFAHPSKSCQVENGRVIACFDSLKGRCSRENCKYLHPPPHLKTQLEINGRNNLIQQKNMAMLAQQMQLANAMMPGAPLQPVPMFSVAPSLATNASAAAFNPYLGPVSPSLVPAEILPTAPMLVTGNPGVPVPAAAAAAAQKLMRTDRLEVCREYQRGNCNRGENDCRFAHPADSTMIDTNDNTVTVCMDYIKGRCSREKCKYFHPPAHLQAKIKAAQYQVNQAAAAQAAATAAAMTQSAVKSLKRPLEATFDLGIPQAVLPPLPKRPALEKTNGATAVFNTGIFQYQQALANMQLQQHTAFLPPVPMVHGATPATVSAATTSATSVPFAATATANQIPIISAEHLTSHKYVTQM
How it was run: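 TR-FRET readout: Ex 340 nm, 665/545 nm emission ratio, normalized to buffer-only (basal) and MBNL1-(CUG)12 controls. Complex of MBNL1-His with Biotin-(CUG)12, compounds 92 nM–58 uM, incubated 60 min at room temperature.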
% is set by controls: 0 for no effect and ±100 for the full control effect; potency is the fitted concentration of half-maximal effect; tags give direction and shape of the fitted curve or compound fluorescence and quenching.

Row | SMILES | Potency | activity change, negative = inhibition
1 | O=C(CSc1n[nH]c(-c2cccnc2)n1)Nc1ccc([N+](=O)[O-])cc1Br | inconclusive: 25.1 µM [quencher, side channel, partial curve] | 
2 | COc1ccc2c(c1OC)C(=O)OC2CC(=O)c1ccc(O)cc1 (centres undefined) | inconclusive: 31.6 µM [quencher, side channel, single point] | 
3 | O=C1C2C3C=CC(C3)C2C(=O)N1/N=C/c1ccc(-c2ccccc2[N+](=O)[O-])o1 (centres undefined) | inconclusive: 22.4 µM [quencher, side channel, partial curve] | 
4 | O=C(Nc1cccc([N+](=O)[O-])c1)N1CCCCCC1 | inconclusive: 28.2 µM [quencher, side channel, partial curve] | 
5 | O=C1Nc2ccc(Cl)cc2C12OCCCO2 | inactive | 
6 | O=C(C1CCCO1)N1CCN(C(=S)Nc2ccccc2C(F)(F)F)CC1 (centres undefined) | inconclusive: 6.31 µM [fluorescent, side channel, partial curve] | 
7 | O=C(CN1CCCCC1)Nc1ccc(Br)cc1[N+](=O)[O-] | inconclusive: 12.6 µM [quencher, side channel, partial curve] | 
8 | COc1ccc(NC(=S)NCCNC(C)=O)cc1 | inactive | 
9 | Nn1cnnc1N/N=C/c1ccc(Cl)c([N+](=O)[O-])c1 | inconclusive: 39.8 µM [quencher, single point] | 
10 | CCOC(=O)c1c(NC(=O)CC2Nc3ccccc3NC2=O)sc(C)c1C (centres undefined) | inactive | 
11 | CCOn1c(=O)c(-c2ccc(Br)cc2)[n+]([O-])c2ccccc21 | inconclusive: 3.16 µM [quencher, side channel, full curve] | 
12 | NC(=O)C[C@@H]1NC(=O)[C@H](CCC(=O)O)NC(=O)c2cc([N+](=O)[O-])cc(I)c2OCC[C@@H](C(N)=O)NC1=O | inconclusive: 11.2 µM [quencher, side channel, partial curve] | 
13 | Nc1nnc(-c2cn(-c3ccccc3)nc2-c2ccc(Cl)cc2)o1 | inactive | 
14 | Cc1nc2c(c(=O)n1Cc1ccccc1Cl)c1nc3ccccc3nc1n2Cc1ccco1 | inconclusive: 6.31 µM [quencher, side channel, partial curve] | 
15 | CCOc1ccccc1/C=C/c1onc(C)c1S(=O)(=O)N1CCC(C(=O)N(CC)CC)CC1 | inconclusive: 15.8 µM [quencher, side channel, partial curve] | 
16 | Cc1ccc(/C=C/C(=O)Nc2nc3ccccc3[nH]2)cc1 | inactive | 
17 | Cc1ccccc1NC(=O)Nc1nnc(CC(=O)NCc2ccccc2)s1 | inconclusive: 39.8 µM [quencher, side channel, single point] | 
18 | O=C1OC(c2ccccc2)c2ccccc21 (centres undefined) |  | inactive: -8.03% [at 11.5 µM]
19 | Cc1cc(C=O)c(C)n1-c1ccc(Cl)c(C(=O)O)c1 | inactive | 
20 | CS(=O)(=O)NNC(=O)c1cc2cc3ccccc3nc2s1 | inconclusive: 39.8 µM [quencher, single point] | 

Row | SMILES | Potency | activity change, negative = inhibition
21 | O=C(Cc1cccs1)N1CCN(S(=O)(=O)c2ccc(Br)cc2)CC1 | inactive | 
22 | Cc1ccc(C(=O)COC(=O)c2ccc3c(c2)C(=O)N(c2cccc4ncccc24)C3=O)cc1C | inconclusive: 79.4 µM [inhibitor, single point] | 
23 | O=S(=O)([N-]c1nc2ccccc2nc1-[n+]1ccc(CCCc2ccccc2)cc1)c1cccs1 | inconclusive: 12.6 µM [quencher, side channel, partial curve] | 
24 | CCSc1cc(N2CCCC2)nc(-c2ccc(C)cc2)n1 | inconclusive: 0.447 µM [fluorescent, side channel, full curve] | 
25 | CC(C)N(C(=O)N1CCC(c2nc(-c3ccncc3)no2)CC1)C(C)C | inconclusive: 3.98 µM [quencher, side channel, partial curve] | 
26 | Cc1ccc(NC(=O)COC(=O)C2=COCCO2)c([N+](=O)[O-])c1 | inconclusive: 15.8 µM [quencher, side channel, partial curve] | 
27 | Cc1ccc(CNC(=O)Cn2nnc3ccccc3c2=O)cc1 | inconclusive: 17.8 µM [quencher, side channel, partial curve] | 
28 | Cc1cccc(NS(=O)(=O)c2ccc([N+](=O)[O-])cc2)n1 | inconclusive: 5.62 µM [quencher, side channel, partial curve] | 
29 | COc1ccc(CN(CC2CCCO2)C(=O)CN2C(=O)COc3ccccc32)cc1OC (centres undefined) | inconclusive: 35.5 µM [quencher, side channel, single point] | 
30 | COc1ccccc1/C=C1\SC(N2CCC(C)CC2)=NC1=O | inconclusive: 15.8 µM [quencher, side channel, partial curve] | 
31 | CC(=O)Nc1ccc(N(C)C)cc1[N+](=O)[O-] | inconclusive: 14.1 µM [quencher, side channel, partial curve] | 
32 | Cc1ccc(C(=O)NCC(=O)N/N=C/c2cccs2)cc1C | inconclusive: 39.8 µM [quencher, side channel, single point] | 
33 | Cc1cccc(-n2c(SCC(=O)N3CC(=O)Nc4ccccc43)nc3ccccc3c2=O)c1C | inactive | 
34 | COc1ccc(OCC(=O)Nc2c(Cl)ccc3nsnc23)cc1 | inconclusive: 14.1 µM [quencher, side channel, partial curve] | 
35 | CC(=O)N1CCn2c3c(c(=O)c4cc(C)ccc42)CCC31 (centres undefined) | inconclusive: 28.2 µM [quencher, side channel, single point] | 
36 | COc1ccc(NC(=S)c2ccc(N(C)C)cc2)cc1 | inconclusive: 6.31 µM [quencher, side channel, single point] | 
37 | CC1(C)CC(CC(=O)Nc2ccccc2[N+](=O)[O-])C(=O)O1 (centres undefined) | inconclusive: 14.1 µM [quencher, side channel, partial curve] | 
38 | Cc1ccc(C2CC(c3ccc(NS(C)(=O)=O)cc3)=NN2C(=O)c2ccco2)cc1 (centres undefined) | inconclusive: 12.6 µM [quencher, side channel, partial curve, poor fit] | 
39 | COC(=O)c1ccc(/C=C(/NC(=O)c2ccccc2)C(=O)N2CCOCC2)cc1 | inactive | 
40 | Cc1n[nH]c(C)c1CCC(=O)N/N=C/c1cccc([N+](=O)[O-])c1 | inconclusive: 12.6 µM [quencher, side channel, partial curve] | 

Row | SMILES | Potency | activity change, negative = inhibition
41 | COC(=O)COc1ccc2oc(=O)cc(-c3cc4ccccc4o3)c2c1 | inconclusive: 3.16 µM [quencher, side channel, full curve] | 
42 | CCOCCCN(C(=O)Cn1nnc(-c2ccc(OC)c(OC)c2)n1)C(C(=O)NCC1CCCO1)c1ccc(F)cc1 (centres undefined) | inactive | 
43 | CCN(CC)c1ccc([N+](=O)[O-])cc1C(=O)O | inconclusive: 28.2 µM [activator, partial curve] | 
44 | CC(Nc1cc(N2CCNCC2)ccc1[N+](=O)[O-])c1ccccc1 (centres undefined) | inconclusive: 1.78 µM [quencher, side channel, full curve] | 
45 | COc1ccc(-c2cc(C(F)(F)F)n3nc(C(=O)N4CCOCC4)nc3n2)cc1 | inconclusive: 15.8 µM [quencher, side channel, partial curve] | 
46 | CCOc1ccccc1N1C(=O)CC(Nc2ccc(N3CCOCC3)cc2)C1=O (centres undefined) | inconclusive: 14.1 µM [quencher, side channel, partial curve] | 
47 | CCCOc1ccc(C(=O)c2nc3c(n2O)CCCC3)cc1 | inconclusive: 39.8 µM [quencher, side channel, single point] | 
48 | Cc1ccc(Cn2ccc(NC(=O)c3cc(CC(C)C)on3)n2)cc1 | inconclusive: 11.2 µM [quencher, side channel, partial curve, poor fit] | 
49 | NS(=O)(=O)c1ccc(-c2ccc(/C=C3\C(=O)Nc4cc(Cl)ccc43)o2)cc1 | inconclusive: 15.8 µM [quencher, side channel, partial curve] | 
50 | COc1ccc(C(=O)N/N=C/c2cccc3cccnc23)cc1 | inconclusive: 17.8 µM [quencher, partial curve] | 
51 | C/C(=N\NC(=O)c1ccc([N+](=O)[O-])cc1)c1cccc([N+](=O)[O-])c1 | inconclusive: 44.7 µM [quencher, side channel, single point] | 
52 | Cn1nc([N+](=O)[O-])nc1Sc1ccc(Cl)cc1 | inconclusive: 1.12 µM [quencher, side channel, partial curve] | 
53 | O=C(O)c1cccnc1SCc1ccc([N+](=O)[O-])cc1 | inconclusive: 17.8 µM [quencher, partial curve] | 
54 | CC(C(=O)NCc1ccco1)c1ccc([N+](=O)[O-])cc1 (centres undefined) | inconclusive: 31.6 µM [quencher, side channel, partial curve] | 
55 | C=CCn1c(CCC)nc2ccccc21 | inactive | 
56 | O=C1C(NS(=O)(=O)c2cccs2)=C(N2CCN(c3ccccc3)CC2)C(=O)c2ccccc21 | inconclusive: 5.62 µM [quencher, side channel, partial curve] | 
57 | COc1cc(OC)c(C2Nc3ccccc3NC3=C2C(=O)CC(C)(C)C3)cc1OC (centres undefined) | inconclusive: 31.6 µM [quencher, side channel, single point] | 
58 | COc1ccccc1Oc1ccc(S(=O)(=O)N2CCOCC2)cc1S(=O)(=O)N1CCOCC1 | inconclusive: 7.08 µM [quencher, side channel, single point] | 
59 | c1ccc2c(c1)ncn2CCCCOc1ccc2c(c1)CCC2 | inactive | 
